The values below come from the RNAGym collection of RNA variant scans (doi:10.7554/elife.90254).

To fix the notation:
B1: LINE1-full (parent)
chain: UACGUAGGUGGUUUUCCCCUGAUAGUGCUAAGGGGGCCUGGAAGUUUGGACUGGGCAGAGCUCAACACAGCGUGGCAAAGUGGCUGUGGCUAGACUGCCUCUCUGGAUUCCUCGUCACUCAGCAGGGCAUCUCUGAGAGAAAUGCC

Read counts are not given, so values of variants with three or more changes are uncertain.

This data set covers variants of B1. Nature of the data set: self-cleavage, relative activity (ratio to wild type); higher = more cleavage; in vitro, sequencing; the parent is a self-cleaving ribozyme.
For the variant U108A A117U U130C, the self-cleavage was determined as 1.91.

As for U13A G72A U115C, the self-cleavage was 0.91.

In the case of A67G A77U A136G, the self-cleavage was 0.18.

As for U20C A24U A64U, the self-cleavage stood at 0.59.

As for U91A A121G G126A C146U, the self-cleavage was found to be 0.79.

Regarding A67G U134A A138G, the self-cleavage came out at 0.3.

Consider U13C U20C A30G G127A A129U A136G, for which the self-cleavage came out at 0.57.

U46C G49A A59G A77G A107G C123A: the self-cleavage came to 0.11.

As for G7A C17U U132A, the self-cleavage is 0.54.

Regarding A43U A59G U62A, the self-cleavage is 0.

U1A U13C U85A U119A: the self-cleavage amounted to 0.23.

A2U U15C A50G U119C A124G C146U: the self-cleavage amounted to 1.31.

For A69G U108C U119C A141U, the self-cleavage is 0.

On to U20C A24U U26C A31U C38A U96A A142G, for which the self-cleavage was found to be 0.17.

With A94G U119C A140G C145U, the self-cleavage was determined as 0.87.

With A22U A42G G88A A107G, the self-cleavage was 0.17.

Consider C56U U104A A136G, for which the self-cleavage came out at 0.15.

As for U62A A69U A117G, the self-cleavage worked out at 0.14.

In the case of C19U A24U A50G A121U A124G, the self-cleavage was 0.38.

U14C A79G U85C U112C: the self-cleavage was determined as 1.02.

For the variant U45C U52A U73A, the self-cleavage was 1.88.

On to A6G U46A U85A, for which the self-cleavage was found to be 0.84.

On to U26C A64U A65G A77U U87A G137A, for which the self-cleavage came to 0.1.

Regarding A6G A64G G106A U115C, the self-cleavage was found to be 0.69.

With U52C U100C G125U, the self-cleavage came to 2.24.

As for U13A U45C U104A, the self-cleavage stood at 0.86.

As to A50U A67C A140C, the self-cleavage was 0.12.

Regarding U26A U73C A77U U112C, the self-cleavage is 0.75.

Take G32A A50G U130C: the self-cleavage was determined as 0.

Turning to A31G A43G G80C G83U, the self-cleavage turned out to be 0.84.

As for U47A A121G U130C, the self-cleavage was determined as 2.35.

Take U5A U14A C71U: the self-cleavage is 0.9.

Turning to A67G U96C A124U, the self-cleavage was determined as 0.

In the case of A2G A50G U109C U134A, the self-cleavage was 0.2.

With U13C A77G U85C U134C, the self-cleavage is 0.

For the variant U20C A50C C103A, the self-cleavage was found to be 1.74.

Regarding U9A U46A A79G, the self-cleavage stood at 0.72.

For A43U U52A G54U U115A U132G, the self-cleavage turned out to be 0.55.

Consider A43G U112C C113A, for which the self-cleavage is 0.42.

Consider C61A A65G U100C, for which the self-cleavage turned out to be 0.06.

As for C63U A124G A141G, the self-cleavage was determined as 0.33.

Take U13A U62C A129G U132C: the self-cleavage is 0.

A2G A77U U85C A92G: the self-cleavage was found to be 0.27.

Regarding A57G U109C A138G, the self-cleavage is 0.21.

Turning to C3A U12C C71A, the self-cleavage worked out at 0.2.

U20C A42G A50U A57G G86A: the self-cleavage was determined as 0.09.

Consider C3U G7U U20A C51A, for which the self-cleavage stood at 0.74.

For the variant A31U U134A A140G, the self-cleavage turned out to be 0.38.

As for U9A U46A A64C, the self-cleavage was found to be 0.52.

On to U39C A79U U91C A141G U143A, for which the self-cleavage was 0.95.

Regarding G7A U9A G32A G53A C146U, the self-cleavage worked out at 1.07.

On to A31G U62C A94U U108C, for which the self-cleavage turned out to be 0.

As for U15C U52C A57U U102C, the self-cleavage stood at 0.

For the variant U12C U23C A117G A136U, the self-cleavage is 1.79.

Take U15C U112A U143C: the self-cleavage turned out to be 1.68.

Consider A24G U45C G49A, for which the self-cleavage stood at 2.03.

For U15C A57G A117G, the self-cleavage came out at 0.5.

With U46C A65G U96A, the self-cleavage came out at 0.14.

Regarding G34A U100A A117G, the self-cleavage was determined as 0.47.

Take A2U C3U A129G: the self-cleavage was 1.05.

A31U A57U A79G U115A: the self-cleavage was 0.04.

As for A79G U81A U87C U96A, the self-cleavage is 0.11.

With U5A U23G C37U, the self-cleavage stood at 0.77.

Turning to U9C U13C U39A A129U, the self-cleavage amounted to 0.54.

On to U9C U39C A64U U130C, for which the self-cleavage came out at 0.88.

In the case of G35A U81A A140G, the self-cleavage was 1.51.

As to G4A C95U U96A, the self-cleavage was 0.13.

Take U14C U115C A138G: the self-cleavage amounted to 1.47.

With U1C G127U U132C U134C, the self-cleavage worked out at 1.02.

Regarding U87A U96C A140G, the self-cleavage turned out to be 0.12.

Consider U85C G126A U132C G139U, for which the self-cleavage was 0.12.

For A43G A67U A121G, the self-cleavage was determined as 0.28.

On to U14C C110U U134C A136U, for which the self-cleavage was determined as 1.1.

On to G21U G36C A43G U62A A67U U132C, for which the self-cleavage came to 0.09.

As for U9A A79G A107G, the self-cleavage was 0.89.

On to U73C C111U C116U C123U, for which the self-cleavage was 2.05.

For U46C A64G C76U U87C, the self-cleavage was found to be 0.11.

As for U20A A77G A124U A140U, the self-cleavage came to 1.84.

Consider U1A U9G U47C U62A U134A, for which the self-cleavage amounted to 0.24.

Take U14C U47C A77U: the self-cleavage came out at 0.83.

For the variant A43G A50U A64U C66U A69C C76U U112C U130C A138U, the self-cleavage amounted to 0.02.

In the case of A65G G75A U81G A140G, the self-cleavage came out at 0.04.

Turning to U115A A140G A142G, the self-cleavage came out at 1.59.

As for U9G A59G A67U U119C, the self-cleavage was determined as 0.

With U73C G93A A136U, the self-cleavage came to 0.04.

Regarding U14C U73C U132A A138G, the self-cleavage came to 2.21.

Consider U20C U62C G144U, for which the self-cleavage was 0.07.

Regarding U108C U119A A138G, the self-cleavage turned out to be 1.31.

On to U13C A65G A69U U81C G97A, for which the self-cleavage amounted to 0.09.

Consider A24G U87A U132C, for which the self-cleavage is 0.07.

Regarding U15C C38A U47C, the self-cleavage is 1.9.

On to U47A U52C G105A, for which the self-cleavage came out at 1.15.

For the variant U47A C66U U91C, the self-cleavage was 0.03.

As to A43G U102C U143C, the self-cleavage stood at 1.08.

For the variant A65G A107G U112C G127U A138U, the self-cleavage amounted to 0.

On to U26C A57U U73A U100C, for which the self-cleavage came out at 0.29.

For A30G U87C A140G, the self-cleavage came out at 0.44.

On to U85A U119A U143C, for which the self-cleavage came to 0.04.

In the case of U26C U45A A78C, the self-cleavage came out at 1.74.

A50U A64G U73A U102C U134G: the self-cleavage came out at 0.11.

For A31U U47A U73C A129G, the self-cleavage turned out to be 0.47.

As to G40A U47A A77U, the self-cleavage turned out to be 0.95.

U81G A129G A142G: the self-cleavage was found to be 2.19.

A42G U85C A121U: the self-cleavage was 0.28.

Take U85A U104C U109A U132C A142G: the self-cleavage is 0.34.

For A59U U62C A142G, the self-cleavage is 0.03.

Regarding A57U A64G U108A, the self-cleavage amounted to 0.07.

U15A U108A A142G: the self-cleavage was 0.37.

Take A65U U102A A138G: the self-cleavage stood at 0.12.

With U13C U104C A138G, the self-cleavage stood at 2.57.

Regarding A2G G34A U112C, the self-cleavage stood at 1.23.

Consider G7A U14A A42G A79G U143C, for which the self-cleavage is 1.47.

On to G114A A117G U130C A141G, for which the self-cleavage was determined as 1.49.

Consider U45C A69G U112C A140U, for which the self-cleavage was found to be 0.

As to U14C U15C C38U A78G, the self-cleavage came to 1.35.

Consider U15C G25U U115C, for which the self-cleavage was found to be 1.05.

As for A2U G36C G74U, the self-cleavage amounted to 0.56.

A59G C71G A94G U96A: the self-cleavage amounted to 0.02.

A31G U45C U104C: the self-cleavage came out at 2.51.

Turning to U14C U47C U73C A141G, the self-cleavage is 1.58.

As to U20A C113U A129G, the self-cleavage came to 1.1.

Regarding U47C A57G A129G, the self-cleavage worked out at 0.42.

Take A42G U47G C84U: the self-cleavage came to 0.08.

Take G36U A64G A65U U91C U115C U134A: the self-cleavage was 0.

Take A6G U12C A79G: the self-cleavage amounted to 1.11.

Take A6U G35A A79G U85C U108C A124U: the self-cleavage stood at 0.57.

As for U87C G114U U115C U119C, the self-cleavage was determined as 0.1.

As to U9A U85C C116A A124U A141U, the self-cleavage turned out to be 0.29.

Regarding U12C A43U U62C G83U U100C, the self-cleavage is 0.08.

G54A A129U U143C: the self-cleavage was 0.73.

As for U13C A31G U132C, the self-cleavage amounted to 0.

Turning to U9A U39A A138G, the self-cleavage worked out at 1.08.

For the variant U9C U20A A43G, the self-cleavage was 1.04.

Consider A24U A65C U91C, for which the self-cleavage turned out to be 0.32.

Consider U1G A140G U143C, for which the self-cleavage worked out at 0.54.

With U14C G34A U91A A117U A142U, the self-cleavage was 0.35.

In the case of U62C U109A A140G, the self-cleavage turned out to be 0.05.

On to U15C A42G A64G, for which the self-cleavage was 0.66.

On to U12C U47A A79G A141G, for which the self-cleavage is 0.74.

With U14C U62C U100C, the self-cleavage came out at 0.11.

U20G A43G A136G: the self-cleavage came out at 1.15.

With U14A U52C G60A, the self-cleavage came out at 0.06.

G97U C101U U102C: the self-cleavage worked out at 0.08.

As to U12G U15C G80U U115C C128U, the self-cleavage was 1.36.

For U14C G70A A117C, the self-cleavage came to 0.36.

U46A U47A U96A U104A U115C: the self-cleavage amounted to 0.05.

With U102C C116U A138G, the self-cleavage worked out at 1.09.

With U9A A43G U47A A141G, the self-cleavage was found to be 1.13.

For A50U A59G U87A, the self-cleavage stood at 0.02.

G48A U96C A129U U132C A138G: the self-cleavage worked out at 0.14.

On to U14C A64U A107G C128U U143C, for which the self-cleavage amounted to 0.48.

As to U13C U39C U102A U134C, the self-cleavage turned out to be 1.35.

Turning to G36A U45G U96A C123U, the self-cleavage amounted to 0.04.

As to U1C U100C C118U, the self-cleavage is 1.53.

As for U13C A69U G74A U100A A107U U119C, the self-cleavage is 0.

Turning to U91C U112C C123U, the self-cleavage came out at 0.34.

In the case of A43G U62A G74U, the self-cleavage worked out at 0.04.

As for U15A A24G A57G A69C, the self-cleavage was 0.25.

Consider U20C U52C A92G, for which the self-cleavage was determined as 0.41.

Regarding A22U A78G U130A, the self-cleavage amounted to 1.08.

With U47C U52C A121U, the self-cleavage stood at 1.47.

For A59G U108A G127A, the self-cleavage turned out to be 0.12.

For U73C C118U A138G, the self-cleavage stood at 2.5.

With A50U U87C A94C A141G, the self-cleavage was 0.

Consider A2G A59G G105A, for which the self-cleavage came out at 0.16.

On to A78U U85C A136U A141G, for which the self-cleavage was 0.13.

Turning to U20C A31G A79G U87A C90A U112C A124U, the self-cleavage is 1.02.
